Reference: PubChem BioAssay AID360 (National Center for Advancing Translational Sciences (NCATS), 2006)
Screen size: about 48,000 compounds; about 550 (1.1%) were called active. Inconclusive results (about 4%) are left out. Cut-off read from the data, not from the text of the source: active = potency below about 15 µM; inconclusive = mostly about 16 µM to 33 µM; inactive = weaker than that. The list shows a part of the results.

What follows are compounds tested against Lysosomal acid glucosylceramidase (Homo sapiens) (UniProt P04062) (assay: Glucocerebrosidase). Conditions: purified enzyme, resorufin glucoside fluorescence (screen aimed at inhibitors), 20 min; series mostly up to 77 µM.
Method in brief: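 Wild-type enzyme at 0.2 nM final in 50mM citric acid/KH2PO4, 10mM sodium taurocholate, 0.01% tween-20, pH 5.9, with resorufin beta-D-glucopyranoside at 30 uM final. Compounds titrated, 20 min at RT, red fluorescence read; AC50 from titration.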
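Note: the screen sought inhibitors.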
Potency is the fitted concentration of half-maximal effect.

Chain of UniProt P04062 (P04062 whole entry, looked up): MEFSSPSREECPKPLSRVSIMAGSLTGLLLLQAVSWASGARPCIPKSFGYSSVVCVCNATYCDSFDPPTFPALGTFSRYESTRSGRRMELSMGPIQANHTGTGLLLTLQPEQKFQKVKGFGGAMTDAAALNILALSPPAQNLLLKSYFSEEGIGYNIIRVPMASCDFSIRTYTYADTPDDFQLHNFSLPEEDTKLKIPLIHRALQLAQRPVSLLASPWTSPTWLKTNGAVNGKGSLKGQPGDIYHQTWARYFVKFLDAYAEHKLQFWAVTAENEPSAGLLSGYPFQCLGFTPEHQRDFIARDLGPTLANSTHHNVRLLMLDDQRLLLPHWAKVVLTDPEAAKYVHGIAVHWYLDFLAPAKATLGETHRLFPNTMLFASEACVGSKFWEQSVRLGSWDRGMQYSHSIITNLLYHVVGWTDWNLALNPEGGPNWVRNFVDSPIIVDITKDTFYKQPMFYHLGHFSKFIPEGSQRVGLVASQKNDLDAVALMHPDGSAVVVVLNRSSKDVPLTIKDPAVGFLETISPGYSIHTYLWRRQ

Potency, inactive:
CCC1(C)Cc2c(sc3nc(NC)n(C)c(=O)c23)CO1 (stereo unspecified) > 76.9 µM, Cc1c(NC(=O)CN2CCCc3ccccc32)c(=O)n(-c2ccccc2)n1C > 76.9 µM, COc1ccc2nc(N3CCCC3)c(C#N)cc2c1 > 76.9 µM, Cc1ccc2c(COC(=O)c3n[nH]c4ccccc34)cc(=O)oc2c1 > 76.9 µM, Cc1nn(CCc2nn[nH]n2)c2nc(C(F)(F)F)cc(C(F)(F)F)c12 > 76.9 µM, CSc1ccc(-c2nnn(CC(=O)NCc3ccccc3)n2)cc1 > 76.9 µM, COc1cc2cc(CN(CCN3CCCC3)C(=O)Nc3ccc(F)cc3)c(=O)[nH]c2cc1OC > 76.9 µM, O=C(NCCN1CCOCC1)c1cccs1 > 76.9 µM, CC(=O)c1cnc2nc(C)nn2c1C > 76.9 µM, CC#CCCC(=O)N1C=Cc2ccccc2C1C#N (stereo unspecified) > 76.9 µM, COc1cccc(-c2nn(C)c3sc(C(=O)N4CCN(c5ccccc5)CC4)cc23)c1 > 76.9 µM, COc1cccc(CNC(=O)C2CCN(C(=O)N(C)C)CC2)c1 > 76.9 µM, CCOC(=O)Cc1csc(NC(=O)CSc2nnc(-n3nc(C)cc3C)c3ccccc23)n1 > 76.9 µM, Nc1cc(N)nc(SCc2cc(=O)oc3cc4c(cc23)CCC4)n1 > 76.9 µM, COC(=O)c1ccccc1NC(=O)Cn1c(SC)c(F)cnc1=O > 76.9 µM, CC(=O)c1ccc(-n2nnnc2SCC(=O)N2CCN(C(=O)c3ccco3)CC2)cc1 > 76.9 µM, COc1cc(OC)cc(C(=O)N(Cc2nc(-c3cccc(C)c3)no2)C(C)C)c1 > 76.9 µM, COc1cc(CC(=O)Nc2nccs2)cc(OC)c1OC > 76.9 µM, CCOc1cc(N2CCOCC2)c(OCC)cc1NC(=O)C(NC(=O)c1ccco1)C(C)C (stereo unspecified) > 76.9 µM, Cc1ccc(C(O)c2nccn2C)o1 (stereo unspecified) > 76.9 µM, CC(=O)Nc1ccccc1OCc1nnc(-c2cccs2)o1 > 76.9 µM, CCC(C)COC(=O)C(C#N)c1nc2ccccc2nc1N1CCCCC1 (stereo unspecified) > 76.9 µM, S=C(c1ccc(N2CCOCC2)cc1)N1CCOCC1 > 76.9 µM, O=C(CN1CCN(C(=O)c2ccccc2)CC1)Nc1ccc(Br)cn1 > 76.9 µM, CC(C)C(c1nnnn1CC1CCCO1)N1CCN(C2CCCC2)CC1 (stereo unspecified) > 76.9 µM, Cc1ccc(C2CC(c3cccc(Br)c3)Nc3nnnn32)cc1 (stereo unspecified) > 76.9 µM, O=C(O)c1cc(S(=O)(=O)Nc2ccc3oc(=O)sc3c2)ccc1O > 76.9 µM, Cc1[nH]c(=O)[nH]c(=O)c1S(=O)(=O)N1CCCC(C(=O)NCc2ccco2)C1 (stereo unspecified) > 76.9 µM, O=S(=O)(Nc1ccc(Cc2ccncc2)cc1)N1CCCC1 > 76.9 µM, O=C(NCc1ccco1)c1c2c(nc3ccccc13)CCC2 > 76.9 µM, O=C(CN(CC1CCCO1)C(=O)CCC(=O)Nc1ccccn1)NCC1CCCO1 (stereo unspecified) > 76.9 µM, CNC(=O)NC(=O)CSc1ncc(C(F)(F)F)cc1Cl > 76.9 µM, COc1cccc(C2CC(=O)Nc3cc(OC)c(OC)c(OC)c32)c1OC (stereo unspecified) > 76.9 µM, CC(O)CNc1ncnc2nc[nH]c12 (stereo unspecified) > 76.9 µM, COCCCNC(=O)c1c(-c2ccccc2)noc1C > 76.9 µM, O=c1c2[nH]c3ccc(F)cc3c2ncn1CCCN1CCOCC1 > 76.9 µM, COCCn1nnnc1C(c1cccs1)N1CCN(c2ccccc2)CC1 (stereo unspecified) > 76.9 µM, C#CCn1cc[n+](CC(=O)N(C)C)c1 > 76.9 µM, CC(=O)Nc1ccc(S(=O)(=O)NCc2ccc(C(=O)NCc3ccc4c(c3)OCO4)cc2)cc1, CCOC(=O)C1CCN(C(C(=O)Nc2ccc3c(c2)OCCO3)c2ccccc2)CC1 (stereo unspecified) > 76.9 µM, CC(=O)Nc1ccc(S(=O)(=O)N2CCC(n3cnc4cc(F)ccc43)CC2)cc1 > 76.9 µM, CC(=O)Oc1ccc(N2C(=O)CCC2=O)cc1 > 76.9 µM, O=C(Nc1ccon1)C(Sc1ccccc1)c1ccccc1 (stereo unspecified) > 76.9 µM, COC(=O)c1ccccc1NC(=O)CSc1nnnn1C1CCCCC1 > 76.9 µM, COc1ccc2c(C)cc(SCC#N)nc2c1 > 76.9 µM, O=C(NC(Cc1ccccc1)C(=O)O)c1ccc(S(=O)(=O)N2CCCC2)cc1 (stereo unspecified) > 76.9 µM, CCN(c1ccccc1)c1nc2ccsc2c(=O)s1 > 76.9 µM, O=C(NCC1CCCO1)c1ccccc1-c1nc(-c2ccccc2)no1 (stereo unspecified) > 76.9 µM, O=C(Cn1cnc2ccccc2c1=O)N1CCN(Cc2ccccc2)CC1 > 76.9 µM, O=C(CCC1CCCC1)N1CCN(C(=O)c2cccnc2)CC1 > 76.9 µM, COc1cc(-c2nnc(SCC#CCO)o2)cc(OC)c1OC > 76.9 µM, COc1cccc(OC)c1C(=O)Nn1c(C2CCC2)nc2ccccc2c1=O > 76.9 µM, O=C(C1CCCN1S(=O)(=O)c1ccc(Cl)c(Cl)c1)N1CCCCC1 (stereo unspecified) > 76.9 µM, COc1ccccc1N1CCN(CC(=O)Nc2cc(F)ccc2C)CC1 > 76.9 µM, CCOC(=O)c1[nH]c(C)c(/C(O)=C2\C(=O)C(=O)N(CCCN3CCOCC3)C2c2cccnc2)c1C (stereo unspecified) > 76.9 µM, COc1ccc(NC(=O)c2[nH]c(C)c(C(C)=O)c2C)cc1Cl > 76.9 µM, O=C(Nc1cccc2c1CCCC2)C1CCN(c2nnnn2-c2ccccc2)CC1 > 76.9 µM, C(=N\n1cnnc1)/c1ccc2ncccc2c1 > 76.9 µM, O=S(=O)(Cc1ccccc1)N1CCCC(c2nc(-c3ccc(F)cc3)no2)C1 (stereo unspecified) > 76.9 µM, CC1(C)CC(=O)C=C(NCCN2CCN(C(=O)Nc3ccccc3)CC2)C1 > 76.9 µM, COc1ccc(CN(CC(=O)NCC2CCCO2)C(=O)CNS(=O)(=O)c2ccc(C)cc2)cc1 (stereo unspecified) > 76.9 µM, FC(F)(F)c1ccc(N2CCOCC2)c(NC2=NCCCCC2)c1 > 76.9 µM, Cc1cccc(OCC(=O)Nc2ccc3c(c2)nc(CCN2CCN(C)CC2)n3C)c1 > 76.9 µM, Cc1ccc(N2CC(C(=O)N3CCCc4ccccc43)CC2=O)cc1 (stereo unspecified) > 76.9 µM, COc1ccccc1NC(=O)Nn1cnnc1 > 76.9 µM, COC(=O)c1sccc1NC(=O)c1ccc(Cl)s1 > 76.9 µM, CCOC(=O)C1=C(c2ccccc2)Nc2nc(C)nn2C1c1cccc(OC)c1OC (stereo unspecified) > 76.9 µM, Cc1cccc(N(C)S(=O)(=O)c2ccc3[nH]cc(C(=O)N4CCOCC4)c(=O)c3c2)c1 > 76.9 µM, Cc1ccccc1Cn1c(=O)c2c(nc3n2CCN3Cc2ccco2)n(C)c1=O > 76.9 µM, CCOC(=O)CSc1nnc(CNC(=O)Cc2ccccc2)n1C > 76.9 µM, CCCOc1ccc(OC(=O)c2ccc(Br)o2)cc1 > 76.9 µM, CCOC(=O)c1cnc2ccc(Cl)cc2c1N1CCN(C)CC1, CCOc1ccc(C2CC(=O)c3c([nH]c(C(=O)OC)c3C)C2)cc1OC (stereo unspecified) > 76.9 µM, CCOC(=O)N1CCN(CC(=O)Nc2cc(C)nn2-c2nc3ccccc3s2)CC1 > 76.9 µM, Cc1ccccc1NC(=O)NCCCN1CCN(C2CCCCC2)CC1 > 76.9 µM, O=C(c1ccc(Br)o1)N1CCN(c2ccccn2)CC1 > 76.9 µM, O=C(c1ccc2c(c1)OCO2)N1CCCc2ccccc21 > 76.9 µM, Cc1nnc(SCC(=O)Nc2ccc(S(=O)(=O)N3CCCC3)cc2)n1N > 76.9 µM, CCOc1ccc(C2C(C(=O)c3ccco3)=C(O)C(=O)N2Cc2cccnc2)cc1OC (stereo unspecified) > 76.9 µM, CC(C)COC(=O)c1ccc(NC(=O)C2C3C=CC(C3)C2C(=O)O)cc1 (stereo unspecified) > 76.9 µM, CCCCCCC(=O)N(O)C1CC(=O)N(c2ccccc2)C1=O (stereo unspecified) > 76.9 µM, Cc1ccc(S(=O)(=O)N2CCCN(S(=O)(=O)c3ccc(C)cc3)CC2)cc1 > 76.9 µM, Cc1cccc(S(=O)(=O)C(C#N)c2nc3ccccc3nc2N2CC(C)OC(C)C2)c1 (stereo unspecified) > 76.9 µM, COC(=O)c1cccc(NC(=O)NC2CCCN2S(=O)(=O)c2ccc(Cl)cc2)c1 (stereo unspecified) > 76.9 µM, CCCn1nnc(NC(=O)COc2ccc(Cl)cc2)n1 > 76.9 µM, Cn1c(=NC(=O)CSCC(=O)N2CCOCC2)sc2ccccc21 > 76.9 µM, COC(=O)C1(C)NC(c2cccs2)C2C(=O)N(c3ccccc3F)C(=O)C21 (stereo unspecified) > 76.9 µM, Cc1cccc(NC(=O)Cn2nnc(-c3ccc(CN4CCCC4)cc3)n2)c1C > 76.9 µM, Nc1ncnc2c1cnn2-c1ccccc1 > 76.9 µM, CS(=O)(=O)c1nncn1-c1ccccc1 > 76.9 µM

Potency, active:
CCc1ccc(C2=Nn3c(nnc3-c3cccs3)SC2)cc1 8.15 µM
